Measured values as given in PubChem BioAssay (NCATS).
Several values for one entry are separate records, joined by “and”; a condition that tells them apart may be missing. Identical values can stand only once. This list was built around the results that the source calls inconclusive (neither active nor inactive); the mix of calls is not that of the screen. A potency beside an inconclusive call is a rough fit, not a confirmed value. Activity calls are given as the source filed them. The call rests on the fitted dose curve; in most records, active means well fitted curve in the direction sought with a large enough effect; inconclusive means small, poorly fitted or top-dose-only effect, or another doubt; inactive means no such curve, though single readings can be large; an effect the other way counts as inactive or inconclusive.

Experiments:
[1] = Viability qHTS for spleen associated tyrosine kinase inhibitor (SYKi) naive MV4-11 cells (AID 1963823); conditions: MV4-11 AML viability, CellTiter-Glo luminescence, 72 h; series mostly up to 45 µM; further: nearly all actives have a fitted effect of over 40% in size
In short: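 Cells: MV4-11, SYK inhibitor naive, 500 per well. Treatment: library compounds, 72 hr, 37 C, 5% CO2. Read-out: CellTiter-Glo luminescence after 10 min RT.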

[2] = Viability qHTS for spleen associated tyrosine kinase inhibitor (SYKi) drug resistant MV4-11 cells (AID 1963824); further: nearly all actives have a fitted effect of over 35% in size
In short: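 CellTiter-Glo luminescence, read 10 min after reagent addition, reports viability after a 72 hr compound exposure. Cells are an MV4-11 line made resistant to SYK inhibition, seeded at 500 per well onto compound-containing plates.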

[3] = Quantitative highthroughput screen to assess conditional lethalithy of NOMO1 cells grown in RPMI1640 with untreated serum (RPMI+s) (AID 1963876); conditions: NOMO1 AML cells in RPMI+serum, CellTiter-Glo viability, 48 h; viability: at 45.8 µM (top of the series); further: nearly all actives have a fitted effect of over 35% in size
In short: (§1)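 Each medium arm—HPLM with 10% dialyzed FBS, or RPMI1640 with 5 mM glucose and 10% untreated or dialyzed FBS—was screened against an 11-point, 3-fold compound titration for 48 h at 37 °C, with CellTiter-Glo luminescence as endpoint.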

[4] = Quantitative highthroughput screen to assess conditional lethalithy of NOMO1 cells grown in RPMI1640 with dialyzed fetal bovine serum (RPMI+ds) (AID 1963877); further: nearly all actives have a fitted effect of over 30% in size
In short: as §1

[5] = Quantitative highthroughput screen to assess conditional lethalithy of NOMO1 cells grown in Human Plasma-Like Medium with dialyzed fetal bovine serum (HPLM+ds) (AID 1963878); conditions: NOMO1 AML cells in HPLM+ds, CellTiter-Glo viability, 48 h; viability: at 45.8 µM (top of the series); further: nearly all actives have a fitted effect of over 35% in size
In short: as §1

[6] = Quantitative highthroughput screen to assess conditional lethalithy of P12 Ichikawa cells grown in Human Plasma-Like Medium with dialyzed fetal bovine serum (HPLM+ds) (AID 1963879); conditions: Potency: viability; further: nearly all actives have a fitted effect of over 35% in size
In short: as §1

[7] = Quantitative highthroughput screen to assess conditional lethalithy of P12 Ichikawa cells grown in RPMI1640 with dialyzed fetal bovine serum (RPMI+ds) (AID 1963880); conditions: Potency: P12-Ichikawa viability; further: nearly all actives have a fitted effect of over 35% in size
In short: as §1

[8] = Quantitative highthroughput screen to assess conditional lethalithy of P12 Ichikawa cells grown in RPMI1640 with untreated serum (RPMI+s) (AID 1963881); conditions: Potency: viability; further: nearly all actives have a fitted effect of over 35% in size
In short: as §1

[9] = Quantitative highthroughput screen to assess conditional lethalithy of SEM cells grown in Human Plasma-Like Medium with dialyzed fetal bovine serum (HPLM+ds) (AID 1963882); further: nearly all actives have a fitted effect of over 35% in size
In short: as §1

[10] = Quantitative highthroughput screen to assess conditional lethalithy of SEM cells grown in RPMI1640 with unreated serum (RPMI+s) (AID 1963883); conditions: SEM B-ALL cells, CellTiter-Glo viability, 48 h; viability: at 45.8 µM (top of the series); further: nearly all actives have a fitted effect of over 35% in size
In short: as §1

[11] = Quantitative highthroughput screen to assess conditional lethalithy of SEM cells grown in RPMI1640 with dialyzed fetal bovine serum (RPMI+ds) (AID 1963884); conditions: SEM B-ALL cells, RPMI+dialyzed FBS, CellTiter-Glo viability, 48 h; viability: at 45.8 µM (top of the series); further: nearly all actives have a fitted effect of over 35% in size
In short: as §1

[12] = Cellular viability qHTS for adrenocortical cancer (ACC) cell line NCI-H295R (AID 1963990); conditions: CellTiter-Glo ATP luminescence, 48 h; series mostly up to 46.1 µM; further: nearly all actives have a fitted effect of over 60% in size
In short: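 Adrenocortical carcinoma cells, suspended at 300 000 cells/mL in serum-free DMEM plus ITS, rested overnight before pin transfer of compound. After two days' incubation, ATP-dependent luminescence was recorded and curve-fitted.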

[13] = Cellular viability qHTS for adrenocortical cancer (ACC) cell line SW-13 (AID 1963989); conditions: SW-13 ACC cells viability, CellTiter-Glo, 48 h; activity (max response): stronger effect = lower value; further: nearly all actives have a fitted effect of over 65% in size
In short: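 IC50 and maximal-response values come from four-parameter logistic fits of titration data. SW-13 cells in serum-free medium received compounds (up to 46 uM final) for 48 h before CellTiter-Glo luminescence.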
Potency means the concentration at half of the fitted maximal effect; tags describe the fitted curve by direction and shape.

| Compound | Potency [1] | Potency [2] | Potency [3] | Potency [4] | Potency [5] | Potency [6] | Potency [7] | Potency [8] | Potency [9] | Potency [10] | Potency [11] | Potency [12] | Potency [13] |
| --- | --- | --- | --- | --- | --- | --- | --- | --- | --- | --- | --- | --- | --- |
| N#CC[C@H](C1CCCC1)n1cc(-c2ncnc3[nH]ccc23)cn1 | active: 8.2 µM and inconclusive: 6.61 µM [cytotoxic, partial curve] | active: 20.6 µM and inconclusive: 8.33 µM [cytotoxic, partial curve] | active: 14.8 µM | inconclusive: 14.8 µM [cytotoxic, partial curve, poor fit] | active: 7.43 µM | inconclusive: 9.35 µM [cytotoxic, partial curve] | inconclusive: 10.5 µM [cytotoxic, partial curve] | inconclusive: 16.6 µM [cytotoxic, partial curve] | inconclusive: 8.33 µM [cytotoxic, partial curve] | inconclusive: 4.69 µM [cytotoxic, full curve] | inconclusive: 5.9 µM [cytotoxic, full curve] | inconclusive: 31.6 µM [cytotoxic, single point] |  |
| O=C(O)c1ccc(-n2nc(-c3ccccc3O)nc2-c2ccccc2O)cc1 | inconclusive: 10.5 µM [cytotoxic, partial curve] | inconclusive: 26.6 µM [cytotoxic, single point] and inconclusive: 11.8 µM [cytotoxic, partial curve] | inconclusive: 26.4 µM [cytotoxic, single point] | inconclusive: 20.9 µM [cytotoxic, partial curve] | inconclusive: 18.7 µM [cytotoxic, partial curve] | inconclusive: 13.2 µM [cytotoxic, partial curve] | inconclusive: 16.6 µM [cytotoxic, partial curve] | inconclusive: 9.35 µM [cytotoxic, partial curve] | inconclusive: 18.7 µM [cytotoxic, partial curve] | inconclusive: 16.6 µM [cytotoxic, partial curve] | inconclusive: 14.8 µM [cytotoxic, partial curve] | inconclusive: 20.6 µM [cytotoxic, partial curve, poor fit] | inconclusive: 29.1 µM [cytotoxic, single point] and inconclusive: 25.1 µM [cytotoxic, single point] |
